Source: PubChem BioAssay (NCI)
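Values below derive from 48-hour exposures of cells grown in 96-well plates, with endpoints linearly interpolated between the two concentrations bracketing the appropriate inhibition level. At the GI50, growth is halved. TGI: total growth inhibition.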

System: NCI-H322M lung
Test: inhibition of tumour cell growth, NCI panel, 48 h

First: COc1ccc(NC2=C(I)C(=O)C(C)=C(C)C2=O)cc1
Second: COc1ccccc1NC(=O)c1ccc(NC(=O)CCl)s1
The GI50 of the first is lower: 15.4 µM for the first, > 100 µM for the second.

Compared with `COc1sc(/C=N/NC(=O)c2[nH]c3ccc(Br)cc3c2-c2ccccc2)cc1Cl`, `CN1CCc2c(sc3ncnc(N/N=C/c4cn(-c5ccccc5)nc4-c4ccc(Cl)cc4)c23)C1` is 13-fold lower in GI50: 4.18 µM for the first, 0.318 µM for the second.

In the case of `O=C(NN1C(=O)/C(=C/C=C/c2ccc([N+](=O)[O-])o2)SC1=S)c1ccccc1O`, the GI50 is reported as 2.51 µM.

Compared with `COc1ccc(NC2=C(I)C(=O)C(C)=C(C)C2=O)cc1`, `COc1ccccc1NC(=O)c1ccc(NC(=O)CCl)s1` is higher in TGI: 30.1 µM for the first, > 100 µM for the second.

`COc1sc(/C=N/NC(=O)c2[nH]c3ccc(Br)cc3c2-c2ccccc2)cc1Cl` and `CN1CCc2c(sc3ncnc(N/N=C/c4cn(-c5ccccc5)nc4-c4ccc(Cl)cc4)c23)C1` cannot be ordered by TGI: > 100 µM for the first, > 100 µM for the second.

In the case of `O=C(NN1C(=O)/C(=C/C=C/c2ccc([N+](=O)[O-])o2)SC1=S)c1ccccc1O`, the TGI is reported as 7.95 µM.
